Assay results from PMC5892938.
This is one part of the list. At the low end of the ranking the order means little.

target: GST-SBP-SLBP (stem-loop binding protein) (UniProt Q14493); test: targeted RNA Bind-n-Seq; settings: RBNS binding buffer: 25 mM Tris pH 7.5, 150 mM KCl, 3 mM MgCl2, 0.1% Tween, 0.5 mg/mL BSA, 1 mM DTT; 27 nM protein, 750 pM RNA pool; temperature not stated; high values mean tight binding;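 further: DESeq read counts versus GST-SBP nonspecific binding control pulldown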

Sequence	binding signal (log2 fold change)
GGUCACGUCUCAAUCAACUCAAGUCCAGGAGUUUACUCCUGCUAUUUCAACAGCUCGCAGUCAAG	-0.168
GGUCACGUCUCAAUCAACUCUAUCCCCAGGGAAACCCCUGGUAUAUUCAACAGCUCGCAGUCAAG	0.0455
GGUCACGUCUCAAUCAACUCAUUUCCAGGAGUUUCCUCCUGCAUACUCAACAGCUCGCAGUCAAG	0.134
GGUCACGUCUCAAUCAACUCAUCCUCCAGGGAAACCCCUGGCUUAUUCAACAGCUCGCAGUCAAG	0.13
GGUCACGUCUCAAUCAACUCAACUCCCAGGGAAACCCCUGGUUUUUUCAACAGCUCGCAGUCAAG	-0.262
GGUCACGUCUCAAUCAACUCAUCUCCCAGGGAAAUCCCUGGCAAUCUCAACAGCUCGCAGUCAAG	0.0148
GGUCACGUCUCAAUCAACUCAACUUCAGGAGUUUCCUCCUGUAUACUCAACAGCUCGCAGUCAAG	-0.0354
GGUCACGUCUCAAUCAACUCUUUCGAGGGGGGGAAAACCCCUUUACCCUCAAUAUCAACAGCUCGCAGUCAAG	-0.0586
GGUCACGUCUCAAUCAACUCAAUCGCAGGAGUUUACUCCUGGUAACUCAACAGCUCGCAGUCAAG	0.111
GGUCACGUCUCAAUCAACUCCUAAGAGGGGGGGAAAACCCCUUUGCCCUCAUUAUCAACAGCUCGCAGUCAAG	0.00317
GGUCACGUCUCAAUCAACUCAUUCCCCAGGGAAAUCCCUGGCAAUUUCAACAGCUCGCAGUCAAG	0.233
GGUCACGUCUCAAUCAACUCAAUGGAGGGGGGGAAAACCCCUUUACCCUCAGAAUCAACAGCUCGCAGUCAAG	0.0924
GGUCACGUCUCAAUCAACUCAACUCCAGGAGUUUGCUCCUGUAUUUUCAACAGCUCGCAGUCAAG	0.0723
GGUCACGUCUCAAUCAACUCAUCUUCAGGAGUUUACUCCUGUAAAUUCAACAGCUCGCAGUCAAG	-0.135
GGUCACGUCUCAAUCAACUCUUCUCCCAGGGAAAACCCUGGUUAUCUCAACAGCUCGCAGUCAAG	-0.178
GGUCACGUCUCAAUCAACUCUUUUCCCAGGGAAAGCCCUGGCAUAUUCAACAGCUCGCAGUCAAG	0.0307
GGUCACGUCUCAAUCAACUCUCACGAGGGGGGGAAAACCCCUUUACCCUCACUUUCAACAGCUCGCAGUCAAG	0.0771
GGUCACGUCUCAAUCAACUCUCUAGAGGGGGGGAAAACCCCUUUACCCUCAUUCUCAACAGCUCGCAGUCAAG	-0.0856
GGUCACGUCUCAAUCAACUCUUUCUCAGGAGUUUUCUCCUGUUAAUUCAACAGCUCGCAGUCAAG	0.0523
GGUCACGUCUCAAUCAACUCAAACGAGGGGGGGAAAACCCCUUUGCCCUCAAUUUCAACAGCUCGCAGUCAAG	-0.234
GGUCACGUCUCAAUCAACUCUUCCCCCAGGGAAAGCCCUGGUUAAUUCAACAGCUCGCAGUCAAG	-0.0159
GGUCACGUCUCAAUCAACUCAAUCUCAGGAGUUUCCUCCUGCAAAUUCAACAGCUCGCAGUCAAG	-0.0947
GGUCACGUCUCAAUCAACUCAUUUUCAGGAGUUUGCUCCUGUAAUCUCAACAGCUCGCAGUCAAG	0.0709
GGUCACGUCUCAAUCAACUCUUUUCCAGGAGUUUUCUCCUGUAUUCUCAACAGCUCGCAGUCAAG	0.0495
GGUCACGUCUCAAUCAACUCCCAAGAGGGGGGGAAAACCCCUUUGCCCUCCAAUUCAACAGCUCGCAGUCAAG	0.146

Sequence	binding signal (log2 fold change)
GGUCACGUCUCAAUCAACUCAAUUCCCAGGGAAAUCCCUGGUUUUCUCAACAGCUCGCAGUCAAG	-0.076
GGUCACGUCUCAAUCAACUCUACUCCAGGAGUUUUCUCCUGUUAUCUCAACAGCUCGCAGUCAAG	-0.0302
GGUCACGUCUCAAUCAACUCUUCUCCCAGGGAAACCCCUGGUUAUUUCAACAGCUCGCAGUCAAG	0.372
GGUCACGUCUCAAUCAACUCAAUUUCCAGGGAAACCCCUGGUAUUCUCAACAGCUCGCAGUCAAG	-0.115
GGUCACGUCUCAAUCAACUCAAUCCCAGGAGUUUCCUCCUGUAGUCUCAACAGCUCGCAGUCAAG	-0.0291
GGUCACGUCUCAAUCAACUCAGUCUCCAGGGAAAGCCCUGGCAAUCUCAACAGCUCGCAGUCAAG	0.0778
GGUCACGUCUCAAUCAACUCAAUCUCCAGGGAAAUCCCUGGCAUAUUCAACAGCUCGCAGUCAAG	0.0318
GGUCACGUCUCAAUCAACUCAUUUCCAGGAGUUUACUCCUGUUAUUUCAACAGCUCGCAGUCAAG	0.0536
GGUCACGUCUCAAUCAACUCAUCUCCCAGGGAAACCCCUGGCUUUUUCAACAGCUCGCAGUCAAG	0.00794
GGUCACGUCUCAAUCAACUCAUUCCCAGGAGUUUUCUCCUGUUUACUCAACAGCUCGCAGUCAAG	0.203
GGUCACGUCUCAAUCAACUCUAUCUCAGGAGUUUUCUCCUGUAAACUCAACAGCUCGCAGUCAAG	0.107
GGUCACGUCUCAAUCAACUCAUUAGAGGGGGGGAAAACCCCUUUGCCCUCCAAAUCAACAGCUCGCAGUCAAG	0.283
GGUCACGUCUCAAUCAACUCCCUCGAGGGGGGGAAAACCCCUUUACCCUCUCUAUCAACAGCUCGCAGUCAAG	-0.0615
GGUCACGUCUCAAUCAACUCAAACGAGGGGGGGAAAACCCCUUUACCCUCAUUCUCAACAGCUCGCAGUCAAG	0.326
GGUCACGUCUCAAUCAACUCAAUUUCCAGGGAAACCCCUGGUUUUCUCAACAGCUCGCAGUCAAG	0.173
GGUCACGUCUCAAUCAACUCAACGCCAGGAGUUUUCUCCUGUAUUUUCAACAGCUCGCAGUCAAG	0.0894
GGUCACGUCUCAAUCAACUCAAUUCCCAGGGAAAUCCCUGGCUAUCUCAACAGCUCGCAGUCAAG	0.251
GGUCACGUCUCAAUCAACUCUAGUCCCAGGGAAACCCCUGGCUUAUUCAACAGCUCGCAGUCAAG	0.054
GGUCACGUCUCAAUCAACUCGUCUUCAGGAGUUUCCUCCUGCUAAUUCAACAGCUCGCAGUCAAG	0.00712
GGUCACGUCUCAAUCAACUCUUCUUCCAGGGAAACCCCUGGUUAUCUCAACAGCUCGCAGUCAAG	-0.058
GGUCACGUCUCAAUCAACUCCAAAGAGGGGGGGAAAACCCCUUUGCCCUCAUAUUCAACAGCUCGCAGUCAAG	0.158
GGUCACGUCUCAAUCAACUCAUUCUCCAGGGAAACCCCUGGUUAACUCAACAGCUCGCAGUCAAG	-0.172
GGUCACGUCUCAAUCAACUCAUUCCCAGGAGUUUCCUCCUGUUUUCUCAACAGCUCGCAGUCAAG	-0.0426
GGUCACGUCUCAAUCAACUCAUUUCCAGGAGUUUACUCCUGCUAUCUCAACAGCUCGCAGUCAAG	-0.0271
GGUCACGUCUCAAUCAACUCAUCCCCCAGGGAAAUCCCUGGCAUUCUCAACAGCUCGCAGUCAAG	0.188

Sequence	binding signal (log2 fold change)
GGUCACGUCUCAAUCAACUCAUCCUCCAGGGAAAACCCUGGUUUUCUCAACAGCUCGCAGUCAAG	0.119
GGUCACGUCUCAAUCAACUCAUCCUCAGGAGUUUACUCCUGUUAACUCAACAGCUCGCAGUCAAG	0.0749
GGUCACGUCUCAAUCAACUCUUUUUCAGGAGUUUCCUCCUGCUAACUCAACAGCUCGCAGUCAAG	0.0191
GGUCACGUCUCAAUCAACUCUUCCUCCAGGGAAAUCCCUGGUAAAUUCAACAGCUCGCAGUCAAG	0.28
GGUCACGUCUCAAUCAACUCAGUCCCAGGAGUUUUCUCCUGUUUUCUCAACAGCUCGCAGUCAAG	0.0934
GGUCACGUCUCAAUCAACUCAUUCCCCAGGGAAAACCCUGGUUAAUUCAACAGCUCGCAGUCAAG	0.155
GGUCACGUCUCAAUCAACUCCUUCGAGGGGGGGAAAACCCCUUUACCCUCUAUAUCAACAGCUCGCAGUCAAG	-0.321
GGUCACGUCUCAAUCAACUCAAUUCCCAGGGAAACCCCUGGCAUAUUCAACAGCUCGCAGUCAAG	0.0493
GGUCACGUCUCAAUCAACUCUUUCUCCAGGGAAAGCCCUGGUUUUUUCAACAGCUCGCAGUCAAG	-0.255
GGUCACGUCUCAAUCAACUCUAUCUCCAGGGAAACCCCUGGCAAUUUCAACAGCUCGCAGUCAAG	-0.03
GGUCACGUCUCAAUCAACUCUUCUCCAGGAGUUUUCUCCUGCUUUUUCAACAGCUCGCAGUCAAG	0.0172
GGUCACGUCUCAAUCAACUCAUCCCCCAGGGAAAGCCCUGGCUUACUCAACAGCUCGCAGUCAAG	0.352
GGUCACGUCUCAAUCAACUCAAUUUCCAGGGAAAGCCCUGGCAUUCUCAACAGCUCGCAGUCAAG	-0.0792
GGUCACGUCUCAAUCAACUCAUCCUCAGGAGUUUCCUCCUGCAUACUCAACAGCUCGCAGUCAAG	0.108
GGUCACGUCUCAAUCAACUCCUCAGAGGGGGGGAAAACCCCUUUGCCCUCAAAUUCAACAGCUCGCAGUCAAG	0.191
GGUCACGUCUCAAUCAACUCUAUUUCCAGGGAAACCCCUGGUAUUCUCAACAGCUCGCAGUCAAG	-0.154
GGUCACGUCUCAAUCAACUCUUCAGAGGGGGGGAAAACCCCUUUGCCCUCAUUAUCAACAGCUCGCAGUCAAG	-0.0583
GGUCACGUCUCAAUCAACUCAGUCCCCAGGGAAAACCCUGGCUAAUUCAACAGCUCGCAGUCAAG	-0.133
GGUCACGUCUCAAUCAACUCAACUCCCAGGGAAACCCCUGGCAUUCUCAACAGCUCGCAGUCAAG	0.171
GGUCACGUCUCAAUCAACUCAUCCUCCAGGGAAAGCCCUGGCAUAUUCAACAGCUCGCAGUCAAG	0.0586
GGUCACGUCUCAAUCAACUCUACUCCAGGAGUUUACUCCUGUAUUUUCAACAGCUCGCAGUCAAG	0.158
GGUCACGUCUCAAUCAACUCCAAGGAGGGGGGGAAAACCCCUUUACCCUCAUUCUCAACAGCUCGCAGUCAAG	-0.156
GGUCACGUCUCAAUCAACUCCUAGGAGGGGGGGAAAACCCCUUUACCCUCAACCUCAACAGCUCGCAGUCAAG	-0.192
GGUCACGUCUCAAUCAACUCUACGGAGGGGGGGAAAACCCCUUUACCCUCAAUUUCAACAGCUCGCAGUCAAG	0.215
